{
  "source": "PubChem BioAssay AID743279",
  "about": "(National Center for Advancing Translational Sciences (NCATS), 2014)",
  "note": "The campaign covered roughly 360,000 compounds. About 17,000 (4.7%) were called active. The inconclusive results got no clear call from the source; some entries with a clear call stand among them for comparison. Cut-off read from the data, not from the text of the source: active = activity change below about -50%; inconclusive = mostly about -30% to -49%; inactive = weaker than that. % is set by controls: 0 for no effect and ±100 for the full control effect.",
  "data": [
    {"assay": "qHTS for Inhibitors of Inflammasome Signaling: IL-1-beta AlphaLISA Primary Screen", "settings": "THP-1 LPS/ATP IL-1B secretion, 16 h; at 57.5 µM, stronger effect = lower value", "how_it_was_run": "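THP-1 cells pretreated 1 hr with compounds (up to 57.5 uM final), then stimulated with LPS (250 ng/mL final) plus ATP (1.25 mM final); secreted IL-1B measured by AlphaLISA after 16 hr, decreased signal indicating inhibition.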", "values": [
      {"smiles": "Cc1cccc(CN2CCC(CNC(=O)CCNC(=O)Cn3ccc4ccccc4c3=O)CC2)c1", "activity change": "inconclusive: -31.4%"},
      {"smiles": "O=C(NC(=S)Nc1ccccc1)c1ccc(-c2ccccc2)cc1", "activity change": "inactive: -6.86%"},
      {"smiles": "O=C(Nc1ccccc1)Nc1ccc(Cl)c(S(=O)(=O)N2CCOCC2)c1", "activity change": "inconclusive: -44.3%"},
      {"smiles": "Cc1cccc2sc(NC(=O)CCNS(=O)(=O)c3cccc4nonc34)nc12", "activity change": "inconclusive: -41.1%"},
      {"smiles": "NS(=O)(=O)c1ccc(CCNC(=O)CSc2nc3ccsc3c(=O)n2Cc2ccccn2)cc1", "activity change": "inactive: -5.34%"},
      {"smiles": "CC(C)CCOP(=O)(c1ccc(N(C)C)cc1)C(O)c1ccc(Cl)cc1Cl", "note": "(centres undefined)", "activity change": "active: -88.5%"},
      {"smiles": "Cn1c(/N=C(\\N)c2ccccc2)nc2ccccc21", "activity change": "inactive: 32.7%"},
      {"smiles": "CN(C)CCNC(C(=O)Nc1cc(Cl)cc(Cl)c1)c1ccccc1", "note": "(centres undefined)", "activity change": "inconclusive: -48.8%"},
      {"smiles": "CCN(CC)CCN(C(=O)c1ccc(S(=O)(=O)N2CCCC2)cc1)c1nc2cc(C)cc(C)c2s1", "activity change": "inconclusive: -36.1%"},
      {"smiles": "Cc1ccc(-c2cc(C(=O)N3CCN(c4ccccc4O)CC3)c3ccccc3n2)cc1", "activity change": "inconclusive: -48.1%"},
      {"smiles": "OCC1CCN(Cc2cn(Cc3ccccc3)nc2-c2cc3ccccc3o2)CC1", "activity change": "active: -55.8%"},
      {"smiles": "O=C(NCCNC(=O)c1cc(OCC(F)(F)F)ccc1OCC(F)(F)F)Nc1cccc(C(F)(F)F)c1", "activity change": "inconclusive: -31.3%"},
      {"smiles": "O=C(CN1CCN(c2ccc(O)cc2)CC1)Nc1ccc(S(=O)(=O)N2CCCC2)cc1", "activity change": "inactive: 19.2%"},
      {"smiles": "CCN(CC)C(=S)SCC(=O)NC12CC3CC(CC(C3)C1)C2", "activity change": "inconclusive: -31.2%"},
      {"smiles": "c1cnc2ccc(-c3ccc4ncccc4c3)cc2c1", "activity change": "inconclusive: -37.1%"},
      {"smiles": "COc1ccc(NC(=O)C2=NNC(=O)CC2)cc1S(=O)(=O)N1CCCCC1", "activity change": "inconclusive: -36.1%"},
      {"smiles": "CCC(=O)NC(=S)Nc1ccc(NC(=O)c2ccco2)cc1", "activity change": "inconclusive: -37.7%"},
      {"smiles": "COc1cc2c(cc1OC)/C(=C/C(=O)OCc1ccccc1)OC2", "activity change": "inconclusive: -34.7%"},
      {"smiles": "Cc1c(C(=O)NC2CCN(Cc3ccccc3)C2)oc2ccc(Br)cc12", "note": "(centres undefined)", "activity change": "inconclusive: -49.8%"},
      {"smiles": "Cc1ccc(-c2nc3ncccc3o2)cc1NC(=O)c1ccccc1", "activity change": "inactive: -6.75%"},
      {"smiles": "Cc1ccc2nc(-c3ccc(F)cc3)c(Cc3ccccn3)n2c1", "activity change": "inconclusive: -34.5%"},
      {"smiles": "COc1ccc(N=Cc2c(O)[nH]c3ccccc23)cc1OC", "activity change": "inconclusive: -31.5%"},
      {"smiles": "CC[C@@]1(O)C(=O)OCc2c1cc1n(c2=O)Cc2cc3c(CN(C)C)c(O)ccc3nc2-1", "activity change": "active: -103%"},
      {"smiles": "COc1ccc(-c2cc(C(=O)Nc3ccccc3F)on2)cc1", "activity change": "inconclusive: -38.4%"},
      {"smiles": "O=c1oc2cc(Oc3c([N+](=O)[O-])cc(C(F)(F)F)cc3[N+](=O)[O-])ccc2c2c1CCCC2", "activity change": "active: -82.2%"},
      {"smiles": "CN=c1c([N+](=O)[O-])nn(-c2ccc3c(c2)OCCO3)n1O", "activity change": "inconclusive: -38.2%"},
      {"smiles": "Cc1nc2ccc(NC(=O)c3nn(C(C)C)c(=O)c4ccccc34)cc2s1", "activity change": "inactive: -11.3%"},
      {"smiles": "Cc1ccc2nc(-c3cccnc3)c(NC3CCCCC3)n2c1", "activity change": "inactive: 34.6%"},
      {"smiles": "CCO[C@H]1OC(C(=O)NCc2nc3ccccc3[nH]2)=C[C@@H](c2ccc(C(F)(F)F)cc2)[C@@H]1CCCO", "activity change": "inconclusive: -45.3%"},
      {"smiles": "COc1ccc2cc(C3CC(c4ccco4)=NN3S(=O)(=O)c3ccccc3)c(Cl)nc2c1", "note": "(centres undefined)", "activity change": "inconclusive: -32.4%"},
      {"smiles": "O=C(Nc1ccc(NC(=O)c2cc([N+](=O)[O-])ccc2N2CCOCC2)cc1)c1cccs1", "activity change": "inconclusive: -36%"},
      {"smiles": "c1cncc(-c2nc(N3CCOCC3)c3ccccc3n2)c1", "activity change": "inconclusive: -47.4%"},
      {"smiles": "O=C(N/N=C/c1c(F)cccc1Cl)c1ccc(Cn2cc(Br)cn2)o1", "activity change": "inconclusive: -33.9%"},
      {"smiles": "COC(=O)C1=C(C)N(Cc2ccccc2)C(=NCc2cccc(Cl)c2)N[C@H]1c1cccc(F)c1", "activity change": "inconclusive: -45.7%"},
      {"smiles": "C[C@@]12C(=O)Nc3cc(Cl)ccc3C(=O)N1[C@H]1c3ccccc3OC[C@@H]1[C@@H]2c1ccccc1", "activity change": "inconclusive: -36.4%"},
      {"smiles": "CN(C)CCNC(=O)C(=O)Nc1cc2c3c(c1)CCC(=O)N3CCC2", "activity change": "inactive: -1.02%"},
      {"smiles": "CN(C)S(=O)(=O)c1ccc(F)c(C(=O)Nc2ccccc2C(=O)NC2CC2)c1", "activity change": "inactive: 6.54%"},
      {"smiles": "CC(C)n1c(NCc2c[nH]c3ccccc23)nc2ccccc21", "activity change": "active: -81.7%"},
      {"smiles": "COC(=O)c1c(-c2ccc3ccccc3c2)csc1NC(=O)Cc1ccc(OC)c(OC)c1", "activity change": "inconclusive: -35.6%"},
      {"smiles": "Cc1ccc(Nc2nc(NCc3cccs3)nc3ccsc23)c(C)c1", "activity change": "active: -51%"},
      {"smiles": "COc1ccc(NC(=O)Cn2cc(S(=O)(=O)Cc3ccccc3)c3ccccc32)c(OC)c1", "activity change": "inactive: 15.8%"},
      {"smiles": "Cc1ccccc1CSc1nccn1-c1ccccc1", "activity change": "inactive: -20.5%"},
      {"smiles": "Cc1ccc(Cl)cc1NC(=O)c1ccc(Cn2cc(Cl)cn2)cc1", "activity change": "inconclusive: -48.6%"},
      {"smiles": "O=C1CCCN1CCCNc1nc2c(S(=O)(=O)c3ccccc3)nnn2c2ccc(Cl)cc12", "activity change": "inconclusive: -37.9%"},
      {"smiles": "CC(C)(C)C(=O)Nc1cc(S(=O)(=O)N2CCCCC2)ccc1N1CCCCC1", "activity change": "inactive: 0%"},
      {"smiles": "Cc1ccc(-c2ccc(=O)n(CC(=O)N3CCN(c4cc(Cl)ccc4C)CC3)n2)cc1", "activity change": "inconclusive: -46.3%"},
      {"smiles": "CCOC(=O)c1cc(CC)sc1NC(=O)c1ccc(N2CCOCC2)c([N+](=O)[O-])c1", "activity change": "inconclusive: -45.9%"},
      {"smiles": "O=C(c1cc2cc(Cl)ccc2[nH]1)N1CCN(Cc2ccc3c(c2)OCO3)CC1", "activity change": "active: -63.6%"},
      {"smiles": "CC(C)C1Oc2ccccc2N(CC(=O)N(Cc2ccncc2)Cc2ccco2)C1=O", "note": "(centres undefined)", "activity change": "inconclusive: -33.6%"},
      {"smiles": "COc1cc(/C=C2/SC(=S)N(CC(=O)NC(C)(C)C)C2=O)cc(OC)c1OC", "activity change": "inconclusive: -36.9%"},
      {"smiles": "CC(C)(C)CN1CCNC(=O)C1CC(=O)NCCc1ccccc1C(F)(F)F", "note": "(centres undefined)", "activity change": "inconclusive: -37%"},
      {"smiles": "Cc1ccsc1C(=O)Nc1ccccc1N1CCOCC1", "activity change": "inactive: -0.323%"},
      {"smiles": "O=C(c1ccc(Cl)c(S(=O)(=O)N2CCCCCC2)c1)N1CCN(c2ccccn2)CC1", "activity change": "inconclusive: -40.5%"},
      {"smiles": "COc1ccc(C(=O)C2CCCN(Cc3cc(C)c(O)c(C)c3)C2)c(OC)c1", "note": "(centres undefined)", "activity change": "inconclusive: -38.4%"},
      {"smiles": "COc1ccc(NC(=O)C(c2ccncc2)n2c(=O)c(-c3ccccc3)nc3ccccc32)cc1", "note": "(centres undefined)", "activity change": "active: -56.1%"},
      {"smiles": "O=C(C[C@H]1C[C@H]2c3cc(NS(=O)(=O)c4ccc(F)cc4)ccc3O[C@H]2[C@H](CO)O1)NCc1cc(F)ccc1F", "activity change": "inactive: 9.17%"},
      {"smiles": "Cc1ccc(-c2ccc(CN3C(C(C)C)C(=O)N(Cc4cn(CCC5OCCO5)nn4)CCS3(=O)=O)cc2)c(C)c1", "note": "(centres undefined)", "activity change": "inconclusive: -45.8%"},
      {"smiles": "Cc1cccc(N(C(=O)c2snc(C(N)=O)c2N)C(C(=O)NCC2CCCO2)c2c[nH]c3ccccc23)c1", "note": "(centres undefined)", "activity change": "inconclusive: -43.6%"},
      {"smiles": "COc1ccc(C(C)(C)C)cc1NC(=O)CNc1cccc2ccccc12", "activity change": "inconclusive: -44.8%"},
      {"smiles": "Fc1cccc(F)c1-n1c(CN2CCCCC2)csc1=S", "activity change": "inconclusive: -43.1%"},
      {"smiles": "COc1ccc(C(=O)Nc2ccc3ccccc3n2)cc1OC", "activity change": "inactive: -13.8%"},
      {"smiles": "O=C(/C=C/c1ccco1)c1ccccc1O", "activity change": "inactive: -10%"},
      {"smiles": "CCOC(=O)Nc1sc2nc(C)cc(C)c2c1-n1cccc1", "activity change": "inactive: -11.4%"},
      {"smiles": "COc1ccc2cc3[n+](cc2c1OC)CCc1cc2c(cc1-3)OCO2", "activity change": "inconclusive: -40.2%"},
      {"smiles": "CCOC(=O)C(Cc1c[nH]c2ccccc12)NC(=O)c1ccccc1Br", "note": "(centres undefined)", "activity change": "inconclusive: -36.9%"},
      {"smiles": "c1cnc(N2CCN(c3ccc4ccccc4n3)CC2)nc1", "activity change": "active: -50.1%"},
      {"smiles": "Cc1c(Cl)cccc1N/C(SCC(=O)N1CCCCCC1)=C(/C#N)c1nc2ccccc2s1", "activity change": "active: -93.5%"},
      {"smiles": "COC(=O)C(=Cc1ccccc1[N+](=O)[O-])C(=O)OC", "activity change": "active: -65.5%"},
      {"smiles": "S=C(N/N=C/c1ccc2ncccc2c1)Nc1cccnc1", "activity change": "inconclusive: -39.3%"},
      {"smiles": "COc1cccc(-c2cc(C(=O)Nc3cc(C)n(Cc4ccc(Cl)cc4)n3)no2)c1", "activity change": "inconclusive: -35.9%"},
      {"smiles": "COC(=O)c1ccc(OC(C)C(=O)c2ccc(C)cc2)cc1", "note": "(centres undefined)", "activity change": "inactive: 3.49%"},
      {"smiles": "CC(C)(C)N1C(=O)c2ccc(C(=O)Nc3ccc(O)cc3)cc2C1=O", "activity change": "inconclusive: -48.6%"},
      {"smiles": "CC(C)c1ccc(NC(=O)Nc2nc(C(C)N)cs2)cc1", "note": "(centres undefined)", "activity change": "inconclusive: -35.7%"},
      {"smiles": "Cc1cc(-c2ccc(C)c(S(=O)(=O)NCC3CCN(Cc4ccccc4F)CC3)c2)on1", "activity change": "inconclusive: -38.2%"},
      {"smiles": "Cn1cc(Br)c(C(=O)N/N=C/c2cc3c(cc2Cl)OCO3)n1", "activity change": "inconclusive: -40.8%"},
      {"smiles": "Cc1sc2nc3c(SC(C)C(=O)O)cc(C(=O)c4ccccc4O)cn3c(=O)c2c1C", "note": "(centres undefined)", "activity change": "inconclusive: -33.2%"},
      {"smiles": "COc1ccc(S(=O)(=O)Cc2ccc(C(=O)O)o2)cc1", "activity change": "inactive: 8.91%"},
      {"smiles": "CC1CCCC(C)N1C(=O)COC(=O)c1ccc2ccccc2n1", "note": "(centres undefined)", "activity change": "inactive: 1.76%"},
      {"smiles": "COc1ccc2c(c1)c(CC(=O)OCC(=O)O)c(C)n2C(=O)c1ccc(Cl)cc1", "activity change": "inactive: 27.6%"},
      {"smiles": "Oc1ccc(Cl)cc1CNc1cnc2ccccc2c1", "activity change": "inactive: -10.5%"},
      {"smiles": "CC1CCN(CCCCOc2ccc(Br)cc2)CC1", "activity change": "inactive: -9.97%"},
      {"smiles": "COC(CNC(=O)c1ccc2nc(-c3ccccc3)c(-c3ccccc3)nc2c1)OC", "activity change": "inconclusive: -39.6%"},
      {"smiles": "C=CCn1c(=O)[nH]c(=O)c2c(N)c(C(=O)c3ccc(OC)cc3)sc21", "activity change": "inactive: 2.34%"},
      {"smiles": "COC(=O)[C@@]1(Cc2ccc(OC)cc2)[C@H]2c3cc(C(=O)N4CCCC4)n(Cc4ccc(OC(F)(F)F)cc4)c3C[C@H]2CN1C(=O)c1ccccc1", "activity change": "inactive: 0%"}
    ]}
  ]
}
